Laboratory results from PubChem BioAssay AID1508624 (National Center for Advancing Translational Sciences (NCATS), 2021).
Screen size: about 48,000 compounds; about 120 (0.25%) were called active. Not shown: some 4% with an inconclusive outcome. The call rests on the fitted dose curve; in most records, active means well fitted activation curve with a large enough effect; inconclusive means small, poorly fitted or top-dose-only effect, or another doubt; inactive means no such curve, though single readings can be large or run the other way. This is one part of the list.

experiment: Primary qHTS for Identification of Small Molecule Activators of Huntingtin-Antisense Promoter Activity; settings: HEK293 HTT-AS promoter firefly luciferase reporter, 24 h; series mostly up to 57.5 µM; activity change, positive = activation: at the top concentration; further: nearly all actives have a fitted effect of over 55% in size
In short: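 Luminescence was read after Dual-Glo reagent and a 10 min room-temperature incubation. Values were normalized to vehicle (0% activity) and zero RLU (-100% activity). Reporter HEK293 cells had been exposed to compounds (up to 57.5 uM final) for 24 h.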
Potency means the concentration at half of the fitted maximal effect.

Activity change, positive = activation, inactive:
COc1ccc(CNC(=O)Cc2coc3ccc(C)cc23)cc1 -22.4%
Cc1ccc(NC(=O)c2oc3ccc(S(=O)(=O)N4CCOCC4)cc3c2C)c(C)c1 -19.7%
O=C(CCS(=O)(=O)c1nc(-c2ccc3c(c2)OCO3)cc(C(F)(F)F)n1)Nc1ccc(Br)cc1 -51.7%
O=C1CC(c2c(F)cccc2Cl)c2c(ccc3ccccc23)N1 (configuration not stated) -37.9%
COc1cc(C2c3c(oc4ccc(F)cc4c3=O)C(=O)N2Cc2ccc3c(c2)OCO3)ccc1O (configuration not stated) -9.08%
CCCCN(CC)C(=O)c1c[nH]c2ccc(S(=O)(=O)N(C)c3ccc(Cl)cc3)cc2c1=O -35.6%
COc1ccc(C(=O)Nc2ccc3nc4c(c(Nc5ccccc5OC)c3c2)CCCC4)c(OC)c1 -23.8%
COC(=O)c1cccnc1-n1c(=O)c2cccnc2n(CC(=O)Nc2cccc(C)c2)c1=O 7.25%
CC(C)Oc1ccc(CNC(=O)c2ccc3c(c2)nc2n3CCOC2)cc1 24.1%
COc1cc(NC(=O)N2CCSc3ccccc32)cc(OC)c1OC -9.34%
CCN(c1ccccc1C)S(=O)(=O)c1nnc(NC(=O)c2ccccc2C)s1 -32.3%
Nc1cc(-c2ccncc2)c[nH]c1=O -9.13%
CCOc1ccc(CN2CCN(Cc3ccc4c(c3)c3ccccc3n4CC)CC2)cc1 -57.7%
O=C(CCn1c(=O)c2ccccc2n(Cc2cccc(F)c2)c1=O)NCc1ccc2c(c1)OCO2 -14.3%
CCOc1ccc(C(=O)/C=C/c2cn(CC(O)CN3CCc4ccccc43)c3ccccc23)cc1 (configuration not stated) -15.4%
Cc1cc(C)cc(N2C(=O)N(Cc3cc(=O)n4ccccc4n3)c3ccccc3S2(=O)=O)c1 -34%
COc1cc(OC)c(OC)cc1CN1CCc2nc(N3CCN(C)CC3)ncc2C1 -13.5%
Cc1ccc(-c2c(C(=O)N3CCN(c4ccc(F)cc4)CC3)oc(=O)c3ccccc23)cc1 -16.9%
CCc1nn(CC(=O)NCc2ccc(C)cc2)c(=O)c2cc3occc3n12 -7.13%
COc1ccc(N2CCN(c3nc4ccc(C(=O)c5ccccc5)cc4n4cnnc34)CC2)cc1 -14.6%
Cc1cccc2c1-c1sc(C(=O)NCCCN3CCN(c4ccccc4F)CC3)cc1CO2 -38.1%
N#Cc1ccc(Oc2ccc3c(c2)COB3O)cc1 0.205%
CC(=O)Nc1nnc2n1CCS2 -16.5%
Cc1ccc(CN2CCC(CNC(=O)Nc3ccc(C)c(C)c3)C2)cc1 (configuration not stated) -15.4%
COc1ccc(C)cc1NC(=O)c1nnn(-c2c(C)cccc2C)c1C -14.3%
COc1ccc(C)cc1NC(=O)c1oc2ccc(S(=O)(=O)N3CCC4(CC3)OCCO4)cc2c1C -10%
Cc1ccc(C)c(NC(=O)/C(C#N)=C/c2ccc(C(C)C)cc2)c1 19.2%
CC(C)N(C(=O)Cn1cc(SCC(=O)Nc2ccccc2C(F)(F)F)c2ccccc21)C(C)C -19.2%
CCCCc1ccc2nc(NC(=O)OC)[nH]c2c1
CCOc1ccc(C2C(C(=O)Nc3ccccc3C)=C(C)Nc3nnnn32)cc1 (configuration not stated) -7.47%
CC(N)C12CC3CC(CC(C3)C1)C2 (configuration not stated)
CCOc1ccc(OCC)c(NC(=O)C2CCCN(S(=O)(=O)c3cc(Br)cc4c3N(C(=O)CC)CC4)C2)c1 (configuration not stated) -6.67%
Cc1nc2nc(C)c(NS(=O)(=O)c3ccc(CC(C)C)cc3)c(=O)n2[nH]1 -0.698%
Cc1nn(C(=O)c2c(F)cccc2F)c(C)c1S(=O)(=O)N1CCCCCC1 -4.95%
CCn1c(CN2CCOCC2)nc2cc(NC(=O)c3cccc([N+](=O)[O-])c3)ccc21 14.7%
COc1ccc(NC(=O)Cn2cc(C(=O)c3ccccc3OC)c(=O)c3ccc(C)nc32)cc1OC -29.4%
Cn1c(=O)c2c(-c3ccccc3)n(CCCO)cc2n(C)c1=O -6.16%
CCOC(=O)c1cc(-c2ccccc2)n(CCCC(=O)Nc2ccccc2C)c1C -40.7%
COc1ccc(-n2ccnc(NCc3ccccc3Cl)c2=O)cc1OC -6.04%
COc1ccc(C(=O)c2oc3ccccc3c2NC(=O)c2cccc(OC)c2)cc1 -9.54%
CCN(CC)CCOC(=O)c1ccc(NC(=O)c2cc3c(s2)-c2ccccc2OC3)cc1 -22.9%
COc1ccc(CNC(=O)c2sc3nc4n(c(=O)c3c2C)CCCCC4)cc1 13.4%
CCc1ccc(NC(=O)CN2C(=O)c3ccccc3Sc3ccc(C(=O)N4CCCC4)cc32)cc1 -34.1%
Clc1cccc(C2=NC(c3cccs3)=Nc3ccc(Br)cc3N2)c1 9.01%
Cc1nc(-c2ccc(S(=O)(=O)Nc3ccc(Cl)c(C(F)(F)F)c3)cc2)co1 -22.6%
CCN(CC)CCOC(=O)c1ccc(Nc2c3c(nc4ccccc24)CCC3)cc1 -20.9%
COc1ccc(CNC(=O)C(CC(C)C)N2Cc3ccccc3C2=O)cc1 (configuration not stated) -16.6%
Cc1ccc2nc(COc3cccc(NC(=O)c4ccccc4Cl)c3)cc(=O)n2c1 0.848%
CC(C)CN(CCNC(=O)c1cc(-c2cccs2)nc2ccccc12)CC(C)C -9.2%
CCOc1ccccc1CNC(=O)c1cnc2sc(N(CC)CC)nn2c1=O -24.6%
COc1ccccc1/C=C/c1nc(C#N)c(NCC(C)C)o1 5.93%
Cn1c(=O)c2c(c3ccccc31)OC(=O)CC2c1cccc(Cl)c1 (configuration not stated) -6.82%
Cc1ccc(-c2nc(CCNC(=O)C(=O)Nc3c(C)cccc3C)cs2)cc1 -28.4%
CN(C)C1CCN(C(=O)c2ccc(NC(=O)Nc3nc(N4CCOCC4)nc(N4CCOCC4)n3)cc2)CC1 -37.5%
COc1cc(NC(=O)CN2Cc3ccccc3C2=O)cc(OC)c1OC 8.45%
CCOCCn1cnc2sc(C(=O)Nc3ccccc3C(=O)OC)c(C)c2c1=O -6.34% [at 11.5 µM, percent change from vehicle, -100% = no light]
O=C(Cn1ccc2cc(S(=O)(=O)N3CCCCC3)ccc21)NCc1ccccc1Cl -18%
CCOc1cccc(CC(=O)N2CCc3c([nH]c4ccccc34)C2c2ccc(SC)cc2)c1OCC (configuration not stated) -19.3%
Cc1c(C(=O)NCCO)[n+](=O)c2ccccc2n1[O-] -0.905%
CCOc1ccc(NC(=O)Cn2nc(Cc3ccncc3)c3ccccc3c2=O)cc1 -21.7%
COc1ccc(N2C(=O)CSC23C(=O)N(Cc2ccc(C)cc2)c2ccccc23)cc1Cl (configuration not stated) -30.4%
CCCN(CCC)C(=O)c1nn(C)c2c1CSc1ccc(C)cc1-2 8.3%
CC(C)c1nc2ccc(C(=O)NC(C)c3ccccc3)cc2o1 (configuration not stated) 27.9%
O=C(NC1CCCC1)c1ccc(CSc2nc3cccnc3n2Cc2ccc(F)cc2)cc1 -8.79%
CCOC(=O)c1ccc2ncc3c(-c4ccccc4)nn(-c4ccc(F)c(Cl)c4)c3c2c1 -2.14%
O=C(N[C@@H](c1ccccc1)[C@@H]1CCCCN1)c1cccc(C(F)(F)F)c1Cl -45.3%
CCc1ccccc1N1CC(c2nc3ccccc3n2CCCCOc2ccccc2)CC1=O (configuration not stated) -7.35%
CC(=O)c1ccc(N2CCN(S(=O)(=O)c3ccc4c(c3)C(C)(C)C(=O)N4)CC2)cc1 -35.9%
Oc1ccccc1-c1nc(/C=C/c2ccc(F)cc2)nn1-c1ccccc1 2.6%
CCCn1c2ccccc2c2cnn(CC(=O)N(CCCOC)Cc3ccco3)c(=O)c21 -35%
CC(=O)N1CCc2nc3sc(C(=O)Nc4ccc(Cl)cc4F)c(N)c3c(C(F)(F)F)c2C1 0.0548%
CCOc1ccccc1NC(=O)Cn1c(=O)ccc2cc(S(=O)(=O)N3CCCC3)ccc21 -33.3%
CC(Oc1ccccc1)C(=O)Nc1nnc2n1CCS2 (configuration not stated) -12.9%
COc1cc(-c2nc3nc(C)cc(C)n3c2Nc2ccc(Cl)cc2)ccc1O -28.5%
COc1ccc(C(=O)Nc2ccc(-c3nnc4n3CCCCC4)cc2)cc1OC -25.8%
COC(=O)c1cccc(-n2c(CCC(=O)O)ccc2-c2cccs2)c1 33.5%
COc1ccc(Cn2c(C(=O)O)c(CNCc3ccc(C)o3)c3ccc(C)cc32)cc1 -31.1%
Cc1ccc(NC(=O)c2ccc(-n3c(C)nnc3C)cc2)cc1F -6.98%
CCOC(=O)c1c(-c2ccc(C)cc2)csc1NC(=O)c1nc(SC(C)C)ncc1Cl -24.7%
CCc1ccccc1NC(=O)C1CCCN(C(=O)c2cnn(-c3ccccc3)c2-n2cccc2)C1 (configuration not stated) -27.4%
CCCc1nc(SCc2cc(=O)c3ccc(C)c(C)c3[nH]2)n[nH]1 -23.7%
CCC(C(=O)NCCc1ccccc1)n1nc(C)n2c(cc3sccc32)c1=O (configuration not stated) -21.8%
COc1ccc(S(=O)(=O)N2CCN(Cc3nc4ccc(C)cc4o3)CC2)cc1Cl -34.6%
CCOc1ccccc1NC(=O)c1c(NC(=O)c2cccc(C)c2)sc2c1CCC2 -11.9%
CCOc1ccc(N2CC(NC(=O)c3ccc(S(=O)(=O)N4CCCCC4)cc3)CC2=O)cc1 (configuration not stated) -16%
Cc1ccc(-c2cc(C(F)(F)F)n3nc(C(=O)NCC45CC6CC(CC(C6)C4)C5)cc3n2)cc1 -6.92%
CCc1cc2c(cc3c(=O)n(CC(=O)NC4CCC(C)CC4)ncn32)s1 (configuration not stated) -11.1%
Cc1ccc(NC(=O)CSc2nc3ccccc3nc2N2CCOCC2)cc1 -24.3%
COc1cc2nc(NCc3ccc(C)cc3)n3nc(-c4ccccc4)nc3c2cc1OC -11.5%
COc1ccc(CCNC(=O)CS(=O)Cc2nc(-c3ccccc3F)oc2C)cc1OC (configuration not stated) -12.9%
COc1cc(NC(=O)CSc2ncccc2C(=O)OC(C)C)cc(OC)c1 -25%
Cc1cc(C(=O)NCc2ccccc2Cl)c2c(C)nn(-c3ccccc3)c2n1 -1.4%
CCN1C(C(=O)c2ccccc2)=C(OC(=O)c2ccccc2OC)c2ccccc2S1(=O)=O -37.4%
CCN(CC)CCNC(=O)c1ccc2c(=O)n3nc(Nc4ccccc4OC)sc3nc2c1 -21.1%
CCOc1ccc(-c2nc(CSCC(=O)NCc3ccc(Cl)cc3)c(C)o2)cc1 -51.1%
O=S1(=O)c2ccccc2N(Cc2cccc(Cl)c2)c2ccccc21 -29.3%

Potency, active:
CCCc1nnc(NC(=O)Nc2ccccc2Cl)s1 3.55 µM
